Measured values published in the CheMixHub viscosity set.

| Structure (SMILES) | viscosity (293.15 K, 101 kPa) | viscosity (298.15 K, 101 kPa) | viscosity (308.15 K, 101 kPa) | viscosity (313.15 K, 101 kPa) | viscosity (308.15 K, 101.33 kPa) |
| --- | --- | --- | --- | --- | --- |
| CN(C)c1ccccc1 | 1.373 ± 0.029 mPa·s [study A] and 1.405 ± 0.024 mPa·s [study B] and 1.385 ± 0.014 mPa·s [study C] and 1.387 ± 0.014 mPa·s [study D] | 1.289 ± 0.027 mPa·s [study A] and 1.302 ± 0.034 mPa·s [study B] and 1.288 ± 0.021 mPa·s [study C] and 1.357 ± 0.023 mPa·s [study D] and 1.288 ± 0.014 mPa·s [study E] | 1.09 ± 0.02 mPa·s [study A] and 1.111 ± 0.041 mPa·s [study B] and 1.074 ± 0.023 mPa·s [study C] and 1.011 ± 0.1 mPa·s [study D] and 1.078 ± 0.018 mPa·s [study E] and 1.111 ± 0.016 mPa·s [study F] | 1.01 ± 0.02 mPa·s [study A] and 0.988 ± 0.021 mPa·s [study B] and 1.032 ± 0.018 mPa·s [study C] and 0.985 ± 0.016 mPa·s [study D] and 1.024 ± 0.01 mPa·s [study E] | – |
| C=CC#N | – | – | – | – | 0.309 ± 0.005 mPa·s, 0.309 ± 0.01 mPa·s [study A] and 0.312 ± 0.005 mPa·s, 0.315 ± 0.005 mPa·s [study B] |

± gives the uncertainty stated by the source. Some entries of the source have several records that differ or are many. This list holds those alone. An entry can have further records. Results that share an entry are repeats across runs, samples, wells, individuals or studies. Records carry a tag for their origin. Letters hold for one entry only.
